The whole screen tested about 300,000 compounds, of which about 1,200 (0.4%) were called active. This list was built around the results that the source calls inconclusive (neither active nor inactive); the mix of calls is not that of the screen. Calls come from the whole dose curve; as a rule, active = well fitted inhibition curve with a large enough effect; inconclusive = small, poorly fitted or top-dose-only effect, or another doubt; inactive = no such curve, though single readings can be large or run the other way. Where the call is inconclusive, the potency comes from a doubtful curve fit.
What follows are compounds tested against Lysosomal alpha-glucosidase (Homo sapiens) (UniProt P10253) (assay: qHTS Assay for Inhibitors and Activators of Human alpha-Glucosidase Cleavage of Glycogen). Conditions: recombinant GAA, glycogen substrate, Amplex Red glucose oxidase fluorescence; activity change, negative = inhibition: at 76.4 µM (top of the series) unless noted.
Procedure, shortened: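 qHTS, 1536-well; enzyme 4 nM final; cpd up to 77 uM; substrate bovine liver glycogen 30 ug; 50 mM citrate/phosphate pH 5.0, 0.01% Tween-20; 37 C, 40 min; Amplex Red detection 45 min RT; Hill fit → AC50.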
Potency is the fitted concentration of half-maximal effect.
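Throughout, for activity change, negative = inhibition: 0% = full enzyme reaction and -100% = no-enzyme basal signal.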

Row | SMILES | Potency | activity change, negative = inhibition
1 | O=S(=O)(N/N=C/c1cn(Cc2ccccc2)c2ccccc12)c1ccccc1 | inconclusive: 24.9 µM [inhibitor, single point] | 
2 | O=S(=O)(Nc1ccc(O)c(Sc2nc3ccccc3s2)c1)c1ccc(Cl)cc1 | inconclusive: 24.9 µM [inhibitor, partial curve] | 
3 | COc1ccc(NS(=O)(=O)c2ccc(NS(=O)(=O)c3cccs3)cc2)cc1 | inactive | 
4 | O=C(/C=C/NNC(=O)c1ccccc1)c1ccc([N+](=O)[O-])cc1 | inconclusive: 28 µM [inhibitor, single point] | 
5 | Cc1cccc(OCc2nc(CC(=O)Nc3ccc(C)c(C)c3)cs2)c1 | inactive | 
6 | NNc1nccc(Nc2ccccc2C(=O)O)n1 | inconclusive: 17.8 µM [inhibitor, partial curve] | 
7 | Cc1ccc(N2CCN(C(=O)C3CCN(S(=O)(=O)c4ccc5c(c4)oc(=O)n5C)CC3)CC2C)cc1 (stereo not drawn) | inactive | 
8 | Cc1ccc(C)c(CN2C(=O)C3CCCN3c3ccc(C#N)cc32)c1 (stereo not drawn) | inconclusive: 11.1 µM [inhibitor, partial curve] | 
9 | COc1ccc(C(=O)/C=C/C(=O)N(CC(=O)NC2CCCCC2)Cc2ccc(F)cc2)c(O)c1 | inactive | 
10 | COC(=O)C(CCSC)NC(=O)C1CCN(c2ncnc3c2nc2n3CCCCC2)CC1 (stereo not drawn) | inactive | 
11 | COCCNC(=O)C(C#N)c1nc2ccccc2nc1N1CCCCCC1 (stereo not drawn) | inconclusive: 17.6 µM [inhibitor, partial curve] | 
12 | CCn1ccc(C(=O)Nc2ccc3c(c2)CCC3)n1 | inconclusive: 1 µM [inhibitor, partial curve, poor fit] | 
13 | O=C1CCC/C(=N/NC(=O)c2ccc(CN3c4cccc5cccc(c45)S3(=O)=O)cc2)C1 | inconclusive: 15.7 µM [inhibitor, partial curve] | 
14 | CCOc1ccc(-n2c(SCC(=O)Nc3ccc(CC)cc3)nc3c(oc4ccccc43)c2=O)cc1 | inactive | 
15 | COc1ccccc1C(=O)N/N=C(\C)CC(=O)Nc1ccccn1 | inconclusive: 31.6 µM [inhibitor, single point] | 
16 | CN1C(=O)/C(=C\C=C2/CCCN2C)N(C)C1=S | inconclusive: 35.5 µM [inhibitor, partial curve] | 
17 | CCN(CC)S(=O)(=O)c1ccc(N2CCN(C)CC2)c(NC(=O)Nc2ccccc2F)c1 | inconclusive: 11.2 µM [inhibitor, single point] | 
18 | Cn1c(=O)c2sccc2n2c(CCCC(=O)NCc3ccc4c(c3)OCO4)nnc12 |  | inconclusive: 132% [activator]
19 | CCc1cccc(NC(=O)CN(C)S(=O)(=O)c2ccc3[nH]c4c(c3c2)CCCC4)c1 | inactive | 
20 | CCCC1CCC(=NNC(=S)NCCc2ccccc2)CC1 (stereo not drawn) | inconclusive: 50.1 µM [inhibitor, single point] | 
21 | Cc1cc(C)c2c(-n3cccc3)c(C(=O)NNS(=O)(=O)c3ccccc3)sc2n1 | inconclusive: 10 µM [inhibitor, partial curve] | 
22 | N#Cc1c(/N=C/c2cccs2)sc2c1CCCCC2 | inconclusive: 35.5 µM [inhibitor, single point] | 
23 | CCOC(=O)N1CCc2c(sc(N)c2C#N)C1 | inconclusive: 17.6 µM [inhibitor, partial curve] | 

Row | SMILES | Potency | activity change, negative = inhibition
24 | COc1ccc(N2CCC(CNC(=S)Nc3c(C)cccc3C)C2)cc1 (stereo not drawn) | inconclusive: 15.8 µM [inhibitor, partial curve] | 
25 | Cc1[nH][nH]c(=O)c1C(c1ccc(F)cc1)c1c(C)[nH][nH]c1=O | inconclusive: 28.2 µM [inhibitor, partial curve] | 
26 | Cc1ccc(C2=[N+]([O-])C3(CCCCC/C3=N\NC(N)=O)N(O)C2(C)C)o1 (stereo not drawn) | inconclusive: 11.1 µM [inhibitor, partial curve] | 
27 | O=C(Nc1ccc(Cl)cc1)c1cc2c(cc1O)[nH]c1ccccc12 | inconclusive: 35.5 µM [inhibitor, single point] | 
28 | COc1ccc(/C=N/NC(=S)Nc2ccccc2)cc1 | inconclusive: 11.1 µM [inhibitor, partial curve] | 
29 | Cc1nn(-c2ccccc2)c2c1C(c1ccncc1)C(C#N)=C(N)O2 (stereo not drawn) | inconclusive: 24.9 µM [inhibitor, single point] | 
30 | Cc1ccc(S(=O)(=O)N2CCN(CC(=O)N/N=C\c3ccc(O)c(O)c3)CC2)cc1 | active: 6.31 µM | 
31 | CCCC(=O)Nc1nc2c(s1)COc1ccccc1-2 | inconclusive: 50.1 µM [inhibitor, single point] | 
32 | COc1c(/C=N/Nc2ccc(C(=O)O)cc2)c(CCN(C)C(C)=O)cc2c1OCO2 | inconclusive: 50.1 µM [inhibitor, single point] | 
33 | CCCCC(=NCCO)C1=C(O)C(C(=O)OC)C(C)(C)CC1=O (stereo not drawn) | inactive | 
34 | COc1ccccc1Nc1ccc(NC(=O)c2cccc([N+](=O)[O-])c2C)cc1 | inconclusive: 17.8 µM [inhibitor, partial curve] | 
35 | COC(=O)CCc1c(C)c(C(=O)c2cc(OC)c(OC)c(OC)c2)c2ccccn12 | inconclusive: 28.2 µM [inhibitor, single point] | 
36 | CNc1ccccc(C(=O)/C=C/c2ccccc2OC)c1=O | inactive | 
37 | C/C=C\C=C\C(=O)N1CC2(CC(c3cccc(NC(=O)COc4ccc(Cl)cc4)c3)=NO2)C[C@H]1C(N)=O (stereo partly drawn) | inactive | 
38 | CC1=C(C(=O)OC(C)C)C(c2cccc([N+](=O)[O-])c2)n2c(cc(=O)[nH]c2=S)N1 (stereo not drawn) | inconclusive: 35.5 µM [inhibitor, partial curve] | 
39 | COc1ccc(NC(=S)NCC2CCN(c3ccc(OC)cc3)C2)cc1 (stereo not drawn) | inconclusive: 28.2 µM [inhibitor, partial curve] | 
40 | Cc1ccc(COC(=O)Cc2coc3cc(O)ccc23)cc1 | inconclusive: 44.7 µM [inhibitor, partial curve, poor fit] | 
41 | Nc1ccc2c(c1)C(=O)C(=O)c1ccccc1-2 | inactive | 
42 | CC1(C)CC(=O)C2=C(C1)Nc1[nH]n(-c3ccccc3)c(=O)c1C2c1ccc2c(c1)OCO2 (stereo not drawn) | inconclusive: 35.5 µM [inhibitor, single point] | 
43 | Cc1cc(Nc2ccccc2O)nc(C)n1 | inconclusive: 35.5 µM [inhibitor, single point] | 
44 | COc1cccc(C2NC(CC(C)C)(C(=O)O)C3C(=O)N(Cc4ccccc4)C(=O)C23)c1O (stereo not drawn) | inconclusive: 31.6 µM [inhibitor, partial curve] | 
45 | CCCc1nc2ccccc2c(=O)n1/N=C/c1ccc(O)c(O)c1 | active: 11.2 µM | 
46 | CCOc1cc(CNc2ccc(O)cc2)cc(Cl)c1OCc1ccccc1 | inconclusive: 0.891 µM [inhibitor, full curve, poor fit] | 

Row | SMILES | Potency | activity change, negative = inhibition
47 | COc1ccc(-c2ccc(SCC(=O)Nc3nccs3)nn2)cc1OC |  | inconclusive: 36.2% [activator]
48 | N/C(=N\O)c1ccc(N2CCN(c3ncccc3C(F)(F)F)CC2)nc1 | inconclusive: 14 µM [inhibitor, partial curve] | 
49 | Cc1ccc(S(=O)(=O)N/N=C/c2c[nH]c3ccccc23)cc1 | inconclusive: 8.91 µM [inhibitor, partial curve] | 
50 | O=C(c1ccc2c(=O)n(CC3CCCO3)c(=S)[nH]c2c1)N1CCN(c2ccccc2)CC1 (stereo not drawn) | inconclusive: 39.5 µM [inhibitor, single point] | 
51 | COc1cc(/C=C2/C(=O)NN(c3ccc(Cl)cc3)C2=O)cc(OC)c1O | inconclusive: 50.1 µM [inhibitor, single point] | 
52 | COc1ccc(S(=O)(=O)NNC(=O)c2sccc2-n2cccc2)cc1 | inconclusive: 10 µM [inhibitor, full curve] | 
53 | Oc1c(N=Nc2ccccc2)sc2ccccc12 | inconclusive: 12.6 µM [inhibitor, partial curve] | 
54 | CCc1cc[n+](-c2nc([O-])sc2C=O)cc1 | inactive | 
55 | CCc1nnc(N/N=C/c2ccc(-c3ccc([N+](=O)[O-])cc3)o2)n1N | inconclusive: 39.5 µM [inhibitor, single point] | 
56 | Cc1cc(S(=O)(=O)Nc2cc(C)c(O)c(C)c2)c(C)s1 | active: 22.2 µM | 
57 | Cc1ccc(NNC(=O)c2cc(C(C)(C)C)nn2Cc2ccccc2)cc1 | active: 11.2 µM | 
58 | Cc1ccc2[nH]c3c(c2c1)CN(C(=O)CN1CCN(C(=O)c2ccco2)CC1)CC3 | inconclusive: 17.8 µM [inhibitor, partial curve] | 
59 | O=C(NCc1ccc2c(c1)OCO2)C1CC(=O)N(c2ccc(Cl)cc2)C1 (stereo not drawn) | inconclusive: 44.7 µM [inhibitor, single point] | 
60 | CC(C)NC(=O)C(=O)NCCc1ccc(Cl)cc1 | inconclusive: 6.31 µM [inhibitor, partial curve] | 
61 | CCOc1ccc(C2=[N+]([O-])C(C)(C)N(O)C2(C)C)cc1 | inconclusive: 22.4 µM [inhibitor, partial curve] | 
62 | Cc1ccc(-c2[nH]c(=O)n3ccncc23)s1 | active: 39.8 µM | 
63 | Cc1cccc(C2NC(=O)c3c(sc4c3CCN(C)C4)N2)c1O (stereo not drawn) | inconclusive: 50.1 µM [activator, single point] | 
64 | Cc1ccc2c(c1)c(=O)c1ccccc1n2CCCC(=O)Nc1ccc(F)cc1F | inactive | 
65 | COC(=O)c1ccc2nc(C)cc(Nc3ccc(O)cc3)c2c1 | inconclusive: 20 µM [inhibitor, partial curve] | 
66 | N#CC1(C#N)C(C(N)=O)C1c1ccccc1 (stereo not drawn) | inactive | 
67 | Cc1ccc(S(=O)(=O)NNC(=O)c2ccncc2)cc1 | inconclusive: 39.8 µM [inhibitor, partial curve] | 
68 | CC(=O)Oc1ccc(Nc2ccccc2)cc1 | inconclusive: 28.2 µM [inhibitor, partial curve] | 

— PubChem BioAssay AID2100 (National Center for Advancing Translational Sciences (NCATS), 2009)
